Laboratory results reported in PubChem BioAssay AID2147 (National Center for Advancing Translational Sciences (NCATS), 2009).
The campaign covered roughly 230,000 compounds. About 3,600 (1.6%) were called active. The inconclusive results got no clear call from the source; some entries with a clear call stand among them for comparison. Calls come from the whole dose curve; as a rule, active = well fitted inhibition curve with a large enough effect (not every such curve was filed as active); inconclusive = small, poorly fitted or top-dose-only effect, or another doubt; inactive = no such curve, though single readings can be large or run the other way. Potencies of inconclusive entries are doubtful fits and often do not repeat.

Target: Lysine-specific demethylase 4E (Homo sapiens) (UniProt B2RXH2)
Experiment: qHTS Assay for Inhibitors of Human Jumonji Domain Containing 2E (JMJD2E)
Details: JMJD2E catalytic domain, FDH-coupled NADH fluorescence (FDH is formaldehyde dehydrogenase); series mostly up to 57.1 µM
Note: nearly all actives have a fitted effect of over 50% in size.
Potency is the fitted concentration of half-maximal effect; tags give direction and shape of the fitted curve.

Sequence of UniProt B2RXH2 (B2RXH2 whole entry, looked up, the tested form may be a part): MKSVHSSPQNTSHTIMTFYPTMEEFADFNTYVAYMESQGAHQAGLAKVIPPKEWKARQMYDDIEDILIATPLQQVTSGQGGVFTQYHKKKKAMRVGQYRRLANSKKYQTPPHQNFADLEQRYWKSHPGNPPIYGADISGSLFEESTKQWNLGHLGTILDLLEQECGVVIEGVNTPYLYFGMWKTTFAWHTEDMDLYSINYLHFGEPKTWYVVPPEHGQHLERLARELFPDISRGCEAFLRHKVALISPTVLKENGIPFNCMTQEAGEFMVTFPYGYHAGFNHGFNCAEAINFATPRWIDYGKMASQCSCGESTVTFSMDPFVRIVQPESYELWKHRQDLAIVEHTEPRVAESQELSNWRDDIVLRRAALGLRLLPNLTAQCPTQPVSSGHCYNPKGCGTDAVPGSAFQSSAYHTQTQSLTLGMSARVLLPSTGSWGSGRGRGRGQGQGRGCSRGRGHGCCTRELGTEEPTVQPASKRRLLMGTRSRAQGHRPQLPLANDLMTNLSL

SMILES	Potency
CCOC(=O)c1c(N)sc(C(=O)Nc2ccccc2F)c1C	inactive
CCCCN(C)C(=O)c1cc2cc3ccc(OC)cc3nc2s1	inconclusive: 31.6 µM [inhibitor, partial curve]
COc1ccccc1C(c1nnnn1CC1CCCO1)N1CCN(c2ccccc2)CC1 (stereo unspecified)	inconclusive: 39.8 µM [inhibitor, single point]
Cc1ccc(NC(=S)c2nc3ccccc3[nH]2)c(C)c1	inconclusive: 39.8 µM [inhibitor, single point]
O=C1CCCN1CCCNc1ncnc2c1[nH]c1ccc(Cl)cc12	inconclusive: 28.2 µM [inhibitor, partial curve]
COc1ccc(S(=O)(=O)N2CCOCC2)cc1NC(=O)CSc1n[nH]c(C(C)C)n1	inactive
Cn1c(C(O)C(O)c2ccccc2)nc2ccccc21 (stereo unspecified)	inconclusive: 35.5 µM [inhibitor, single point]
CCN1/C(=C/c2ccc3cc(C)ccc3[n+]2CC)Sc2cc(C)ccc21	inconclusive: 20 µM [inhibitor, partial curve, poor fit]
CCn1c(CNC(=O)Cc2ccc(OC)cc2)nnc1SCC(=O)c1ccc(Br)cc1	inactive
COc1ccc(-c2csc(Nc3ccccn3)n2)cc1	inactive
O=C(c1cccn2c(=O)c3ccc(Cl)cc3nc12)N1CCN(Cc2ccc3c(c2)OCO3)CC1	inconclusive: 11.2 µM [inhibitor, single point]
Oc1ccc(N2CCN(c3ncnc4sc(-c5ccccc5)cc34)CC2)cc1	active: 15.8 µM
COCCN(C(=O)C(F)(F)F)C(C(=O)NC1CCCCC1)c1ccco1 (stereo unspecified)	inactive
O=C(NNC(=O)C1CC1)c1cc2cc3ccccc3nc2s1	inconclusive: 25.1 µM [inhibitor, single point]
COC1C=CC23c4cc5c(cc4CN(CC2O)C3C1)OCO5 (stereo unspecified)	inactive
CC1=Nc2ccc(C)cc2/C1=C/c1c(N)n2oc(C)cc2nc1=O	inconclusive: 39.8 µM [inhibitor, single point]
O=C(Nc1ccc(N2CCOCC2)cc1)c1cc2ccccc2o1	inconclusive: 39.8 µM [inhibitor, single point]
Oc1cc2ccccc2cc1-c1n[nH]c(=S)o1	inconclusive: 22.4 µM [inhibitor, partial curve]
Cc1nn(-c2ccccc2)c(C)c1C(=O)OCC(=O)N1CC(=O)Nc2ccccc21	inactive
CC(=O)C(C)Oc1ccc2c3c(c(=O)oc2c1)CCCC3 (stereo unspecified)	inconclusive: 31.6 µM [inhibitor, partial curve]
CCC1(C)CC(=O)N(c2ccc(C(=O)O)c(O)c2)C1=O (stereo unspecified)	inconclusive: 28.2 µM [inhibitor, partial curve]
CCCn1c(-c2ccc(F)cc2)nc2c(NCC3CCCN3CC)nc(C)nc21 (stereo unspecified)	inconclusive: 14.1 µM [inhibitor, partial curve]
CCOC(=O)C1=C(C)NC(=S)NC1c1ccc(C)s1 (stereo unspecified)	inactive
CCc1c(C)c2ccc(OCC(=O)OC(C)C)c(C)c2oc1=O	inconclusive: 3.16 µM [inhibitor, full curve]

SMILES	Potency
O=C(NC1CC1)c1cc(-c2ccco2)nc2ccccc12	inconclusive: 28.2 µM [inhibitor, partial curve]
COc1ccc(C(=O)NC(=S)NNC(=O)c2c(-c3ccccc3)noc2C)cc1OC	inconclusive: 39.8 µM [inhibitor, single point]
COc1cc(NC(=S)NCc2cccs2)cc(OC)c1	inactive
C=C(C)CN(CC)C(=O)CC1C(=O)NCCN1CC(C)(C)C (stereo unspecified)	inconclusive: 31.6 µM [inhibitor, single point]
O=S(=O)(Nc1ccc(Cc2ccncc2)cc1)c1cccs1	inactive
Cc1ccc(Nc2c(-c3ccccn3)nc3ccc(C)cn23)cc1	inactive
Cc1ccc(N=Nc2c(N)n(-c3ccccc3)[nH]c2=O)cc1	inactive
COc1cc(OC)cc(-c2cc3nc(C)c(CCC(=O)NC(C)CCc4ccco4)c(C)n3n2)c1 (stereo unspecified)	inconclusive: 31.6 µM [inhibitor, partial curve]
COCc1cc(C)nc(N2CCOCC2)c1C#N	inconclusive: 31.6 µM [inhibitor, partial curve]
CC(C)CC(=O)NCc1ccc2[nH]c3c(c2c1)CCCC3	inconclusive: 28.2 µM [inhibitor, partial curve]
C/C(N=Nc1nc2ccccc2s1)=N\Nc1ccccc1O	inactive
Cc1ccc(CNC(=O)CSc2nc3n[nH]c(C)c3c(=N)n2-c2cccc(C)c2)cc1	inconclusive: 35.5 µM [inhibitor, single point]
CC(C)(C)NC(=O)c1ccc2c3c(cccc13)CC2	inconclusive: 31.6 µM [inhibitor, single point]
O=C(O)c1ccc2c(c1)C(=O)N(c1cccc(-c3nc4ccccc4s3)c1)C2=O	inconclusive: 39.8 µM [inhibitor, single point]
Cc1ccc(S(=O)(=O)c2nc(S(C)(=O)=O)sc2N(C)C)cc1	inactive
O=C(N/N=C/C1=Cc2ccccc2OC1)c1ccncc1	inconclusive: 35.5 µM [inhibitor, single point]
O=C(CNc1ccc2ccccc2c1)N/N=C/c1ccc(OC(=O)/C=C/c2ccco2)cc1	inactive
CCCC1C2CN(C(C)=O)CC=C2C(C#N)=C(N)C1(C#N)C#N (stereo unspecified)	inconclusive: 31.6 µM [inhibitor, partial curve]
COc1ccc2[nH]c3c(=O)n(CCCCC(=O)N4CCC(C(N)=O)CC4)c(=S)[nH]c3c2c1	inconclusive: 28.2 µM [inhibitor, single point]
O=C(NCc1ccc(Cl)cc1)c1cnn2ccccc12	inconclusive: 28.2 µM [inhibitor, partial curve]
CC1(C)CC(=O)C(N=Nc2ccc(OC(F)F)cc2)=C(O)C1	inactive
N=C(N)SCc1nc2ccccc2c(=O)n1-c1ccccc1	inconclusive: 39.8 µM [inhibitor, single point]
O=c1oc2cc(OCc3ccc(C(F)(F)F)cc3)ccc2cc1-c1ccccn1	inconclusive: 10 µM [inhibitor, partial curve]
O=c1oc2cc(O)ccc2cc1-c1ccc(F)cc1	inconclusive: 11.2 µM [inhibitor, partial curve]

SMILES	Potency
Cc1ccc2cc(C#N)c(NCCNC(=O)C3CC3)nc2c1C	inconclusive: 25.1 µM [inhibitor, partial curve]
CCCc1[nH]c(=O)c(C#N)c2c1CCCC2	inconclusive: 35.5 µM [inhibitor, single point]
Cc1noc(/C=C/N(C)C)c1S(=O)(=O)N1CCCC(C(=O)NC2CCCCC2)C1 (stereo unspecified)	inconclusive: 39.8 µM [inhibitor, single point]
O=c1[nH]c(Cc2cccs2)nc2ccccc12	inconclusive: 35.5 µM [inhibitor, single point]
Cc1nc([N+](=O)[O-])c(C(=O)O)n1C	inactive
CC(C)OC(=O)c1cc2ccccc2oc1=O	inconclusive: 31.6 µM [inhibitor, single point]
O=C1CN(C(=O)CNCc2cccc(Cl)c2)c2ccccc2N1	inconclusive: 39.8 µM [inhibitor, single point]
Cc1ccc2c(c1)[nH]c1c(=O)n(Cc3ccco3)cnc12	inactive
COCCNC(=O)c1cc2nc(-c3ccccc3)cc(C)n2n1	inconclusive: 28.2 µM [inhibitor, partial curve]
O=C(C1=C[C@@H](c2ccc(Br)cc2)C[C@@H](OCCCCO)O1)N1CCN(Cc2ccccc2)CC1	inconclusive: 22.4 µM [inhibitor, partial curve, poor fit]
O=C(c1ccc(F)cc1)N1CCN(Cc2ccccc2Br)CC1	inconclusive: 31.6 µM [inhibitor, single point]
Cc1[nH]c2ccccc2c1/C=N/NS(=O)(=O)c1ccccc1	inactive
O=C(CN1C(=O)/C(=C/c2ccccc2F)Sc2ccccc21)NCc1cccnc1	inconclusive: 35.5 µM [inhibitor, single point]
Cc1cccc(NC(=O)c2oc3ccc(S(=O)(=O)N4CCOCC4)cc3c2C)c1C	inconclusive: 39.8 µM [inhibitor, single point]
O=C(Cn1nnc(-c2ccc(OCc3ccccc3F)cc2)n1)N1CCOCC1	inactive
O=C(CCSCCC(=O)NCc1ccco1)NCc1ccco1	inconclusive: 22.4 µM [inhibitor, single point]
Cc1cc(C)nc(Sc2ccc(/C=C(\C#N)C(=O)Nc3ccccc3)o2)n1	inactive
COc1cc(-n2c(=O)c3ccccc3n(Cc3cc(=O)n4ccccc4n3)c2=O)cc(OC)c1OC	inconclusive: 3.16 µM [inhibitor, single point]
Cc1cc(-c2csc(NC(=O)c3cc4ccccc4o3)n2)c(C)n1C	inconclusive: 31.6 µM [inhibitor, single point]
CCOC(=O)c1c(NC(=O)c2ccccc2Br)sc2c1CCc1ccccc1-2	inconclusive: 28.2 µM [inhibitor, partial curve]
COc1cc(/C=C/C(=O)N2CCCC2)cc(OC)c1OC	inconclusive: 25.1 µM [inhibitor, partial curve]
CCCCCCc1cc2cc(C(N)=O)c(=N)oc2cc1O	inconclusive: 7.94 µM [inhibitor, partial curve]
Cc1ccccc1C1C(C#N)=C2N=C(N)c3c(sc4c3CCCCC4)N2C2=C1C(=O)CC(C)(C)C2 (stereo unspecified)	inconclusive: 39.8 µM [inhibitor, single point]
